“And” between values parts separate entries of the source, which are not always exact repeats. Equal entries are not always repeated. In all, about 110,000 compounds went through this assay and about 230 (0.21%) showed an effect of 50% or more. The list shows a part of the results.
Each molecule was assayed against DPAP1 (Plasmodium falciparum, UniProt Q8IIJ9) (assay: primary screen, percent inhibition; read by cleavage of a fluorogenic dipeptide substrate; higher = more effect of the substance).
Design: species or system P. falciparum D10 trophozoite lysates; single well
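Also: 30 min substrate incubation versus DMSO and 10 µM JCP410 controls.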

Sequence of DPAP1 (Q8IIJ9 whole entry, looked up): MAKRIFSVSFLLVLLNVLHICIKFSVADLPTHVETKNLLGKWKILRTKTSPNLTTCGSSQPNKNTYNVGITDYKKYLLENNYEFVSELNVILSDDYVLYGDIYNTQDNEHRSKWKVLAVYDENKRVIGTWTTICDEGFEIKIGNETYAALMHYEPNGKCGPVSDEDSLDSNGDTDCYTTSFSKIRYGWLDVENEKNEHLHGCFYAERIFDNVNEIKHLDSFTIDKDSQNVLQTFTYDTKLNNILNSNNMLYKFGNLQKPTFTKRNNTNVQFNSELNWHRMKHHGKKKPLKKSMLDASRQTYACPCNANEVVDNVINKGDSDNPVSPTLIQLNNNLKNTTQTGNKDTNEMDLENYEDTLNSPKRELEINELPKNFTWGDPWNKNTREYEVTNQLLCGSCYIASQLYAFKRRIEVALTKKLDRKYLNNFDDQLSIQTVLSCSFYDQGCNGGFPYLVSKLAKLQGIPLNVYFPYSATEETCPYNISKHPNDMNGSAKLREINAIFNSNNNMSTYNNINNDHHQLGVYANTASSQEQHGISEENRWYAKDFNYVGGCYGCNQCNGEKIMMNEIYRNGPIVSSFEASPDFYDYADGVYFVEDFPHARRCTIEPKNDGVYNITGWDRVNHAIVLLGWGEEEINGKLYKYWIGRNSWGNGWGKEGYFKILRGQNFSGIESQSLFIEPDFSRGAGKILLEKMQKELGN

Structure (SMILES)	% Inhibition @ 10 uM
COc1ccc(CCNC(=O)c2cnn3c(C(F)F)cc(-c4ccccc4)nc23)cc1OC	-1.18%
COc1ccc(CCNC(=O)CN(C)S(=O)(=O)c2cccs2)cc1OC	-6.57%
N#CCNC(=O)[C@H](CS(=O)(=O)Cc1ccccc1)NC(=O)c1ccco1	-6.78%
CC(C)(C)n1c(-c2ccc(S(=O)(=O)N3CCCC3)cc2)cs/c1=N\c1ccccc1	-7.09%
CN(c1cccc(NC(=O)CN2C(=O)c3ccccc3S2(=O)=O)c1)S(C)(=O)=O	5.69%
Cc1cc(C)cc(C(=O)c2ccccc2C(=O)O)c1	-0.771%
CCCCN(CC)C(=O)c1cc2cc3cc(OC)ccc3nc2s1	-1.55%
OCCNc1ncnc2c1c(-c1ccccc1)cn2-c1cccc(C(F)(F)F)c1	7.92%
Cc1cccc(OCC(=O)Nc2cccc3cccnc23)c1	5.15%
O=C(c1cccc(C(=O)N2CCN(c3ccccc3F)CC2)c1)N1CCN(c2ccccc2F)CC1	-2.48%
CCSc1ncnc2c(C#N)c3n(c12)CCCCC3	-2.42%
COc1cccc(-c2nc(CS(=O)(=O)CC(=O)NC3CCCc4ccccc43)c(C)o2)c1 (stereo not shown)	-7.53%
Cc1cc(C)n(C2CC(=O)N(c3cc(Cl)cc(Cl)c3)C2=O)n1 (stereo not shown)	3.35%
CCc1ccccc1-n1nnc(-c2nsc(NC(=O)c3ccccc3)n2)c1C	0.573%
CCOC(=O)c1sc(NC(=O)c2cc(-c3cc(OC)ccc3OC)on2)c(C(=O)OCC)c1C	-6.45%
Cc1cc(C)c2nc(O)c(O)nc2c1	-0.711%
COc1ccccc1-c1nnc(SCC(=O)N2CCC(C)CC2)o1	0.738%
CC(CNC(=O)Cn1ncc2c3ccccc3n(Cc3ccccc3F)c2c1=O)c1ccccc1 (stereo not shown)	-7.1%
CN(C(=O)Cn1nc(C(F)(F)F)c2c1CCCC2)c1ccccc1	4.83%
CCc1nnc2c(NC(C)c3ccccc3)nc3ccccc3n12 (stereo not shown)	-0.165%
COc1ccc(C(=O)C[n+]2ccc3ccccc3c2)cc1OC	-4.61%
CCOc1ccccc1OC(CCN1CCN(C)CC1)c1ccccc1 (stereo not shown)	3.91%
COc1ccc(-n2cnc3cc(NCc4ccco4)ccc32)cc1	-5.34%
CCOc1ccc(NCC(=O)c2ccc(C)cc2)cc1	46.4%
CN(CC(=O)N1CCN(C2CCCCC2)CC1)S(=O)(=O)c1cccc2nsnc12	0.102%

Structure (SMILES)	% Inhibition @ 10 uM
CCOCCCNC(=O)c1ccc(Cn2c(=O)[nH]c3ccsc3c2=O)cc1	-4.86%
COCCCNCc1c(C(=O)O)n(Cc2ccccc2C)c2cc(OC)ccc12	8.17%
O=C(Nc1cccc(Cl)c1)c1ccc(-c2ccccc2)cc1	-1.98%
Cc1cc(NC(=O)C2CC(c3ccc(F)cc3)=NO2)n(-c2ccccc2)n1 (stereo not shown)	-3.94%
O=C(Cc1ccccc1)NCC1COc2ccccc2O1 (stereo not shown)	-2.29%
CC1(C(=O)Nc2nccs2)Cc2ccccc2C(=O)O1 (stereo not shown)	-6.09%
CC(=O)CC(=O)Nc1ccc(F)c(F)c1	-2.03%
CCOC(=O)c1sc(NC(=O)c2ccc(C)cc2)c(C(=O)OCC)c1C	-2.42%
O=S(=O)(c1ccc(-n2cccn2)cc1)N1CCOCC1	-5%
O=C(c1ccccc1F)N1CCN(C2CCCCC2)CC1	-1.6%
CC(=O)c1ccc(N2COc3ccc4ccccc4c3C2)cc1	-4.16%
CCOC(=O)c1c(S(=O)(=O)NCC(C)c2ccccc2)c(C)n(C)c1C (stereo not shown)	2.35%
CCC(C)NC(=O)CSc1nc2c(sc3ccccc32)c(=O)n1Cc1cccnc1 (stereo not shown)	7.11%
CCCOc1ccc(CNC(=O)C2CCCN(c3nn4c(=O)cc(C)nc4s3)C2)cc1 (stereo not shown)	-5.63%
O=C1C2C(c3ccc(F)cc3)OC3(C(=O)c4ccccc4C3=O)C2C(=O)N1Cc1ccccc1 (stereo not shown)	-3.04%
COc1cccc(CNc2nc3c(S(=O)(=O)c4ccccc4)nnn3c3ccc(Cl)cc23)c1	-6.68%
COc1ccc(NC(=O)C2CC2c2ccc(Cl)cc2)c(C)c1 (stereo not shown)	2.08%
CCCNC(=O)C(C)N(c1ccc(OC)cc1)S(C)(=O)=O (stereo not shown)	-5.35%
COc1ccc(-n2nnnc2C2CCN(S(=O)(=O)c3ccc4c(c3)OCCO4)CC2)cc1	-3.49%
Cc1cccc(C)c1NC(=O)COc1ccc(Cl)cc1	4.63%
Cc1cc2c(c(=O)o1)C(c1ccc(C(F)(F)F)cc1)C(C#N)=C(N)O2 (stereo not shown)	1.96%
COc1ccc(CC2CCOC2=O)cc1 (stereo not shown)	3.25%
CCOC(=O)c1nnn(-c2nonc2N)c1CSc1ccccn1	14.6%
CC[C@H](NC(=O)[C@H](Cc1c(F)cccc1F)NC(=O)c1cc(-c2ccccc2)c(-c2ccccc2)s1)C(=O)c1nc2ccccc2o1	4.33%
CN1CCCC(COC(c2ccccc2)c2ccccc2)C1 (stereo not shown)	3.62%

Structure (SMILES)	% Inhibition @ 10 uM
CCOc1ccc(C2=CC(c3cc(OC)c(OC)c(OC)c3)n3nnnc3N2)cc1 (stereo not shown)	1.73%
C=CCN(Cc1ccc(OCC)c(OC)c1)C(=O)Nc1cccc(Cl)c1	-4.49%
CCc1ccc(-c2nc(CSCC(=O)NCc3ccc4c(c3)OCO4)c(C)o2)cc1	-1.05%
Cc1ccc(CNC(=O)CCn2c(=O)[nH]c3ccsc3c2=O)cc1	-7.44%
Cc1ccc(-n2nc(C)c3c(C)cc(=O)oc32)cc1Cl	3.65%
CC1(C)CC(=O)C2=C(C1)N(c1ccccc1)C(=O)C2(NC(=O)c1ccccc1)C(F)(F)F (stereo not shown)	-6.64%
Cc1nc(C)c(-c2csc(Nc3ccc(O)cc3)n2)s1	-4.3% and -7.57%
CCC(Sc1nc(N)cc(O)n1)C(=O)Nc1cccc2ccccc12 (stereo not shown)	2.36%
N#CCNC(=O)C1(NC(=O)c2ccc(N3CCOCC3)cc2)C[C@H]2CC[C@@H]1C2 (stereo partly shown)	-6.46%
CCO/C(O)=C1\C(C)=NC2=C(C(=O)CCC2)C1c1ccc(OC)c(Br)c1 (stereo not shown)	2.45%
Cc1nn(CCCC(=O)N2CCN(C(=O)c3ccco3)CC2)c(=O)c2c1sc1ccccc12	1.91%
COC(=O)C1=C(N)Oc2cc(C)n(CCc3ccc(OC)c(OC)c3)c(=O)c2C1c1cccnc1 (stereo not shown)	-1.11%
O=C(O)c1ccc(CNC(=O)c2ccc3c(c2)C(=O)N(Cc2cccnc2)C3=O)cc1	-5.51%
N#CC1=C2SCN(CCc3ccccc3)CN2C(=O)CC1c1cccs1 (stereo not shown)	42.6%
CCOc1ccc(CC(=O)Nc2cccc(Cl)c2C)cc1OCC	-4.02%
COCCCNC(=O)c1ccc(Cn2c(SCc3ccc(F)cc3)nc3ccncc32)cc1	-1.92%
COc1ccc(C(=O)Nc2nccs2)cc1S(=O)(=O)N1CCOCC1	-0.995%
O=C1CC(N2CCN(c3ccccc3)CC2)C(=O)N1CCc1ccccc1 (stereo not shown)	6.35%
CC(=O)Nc1ccccc1C(=O)Nc1ccccc1	-2.44%
CCOc1ccc(N2C(=O)CC(N(C)Cc3ccccc3)C2=O)cc1 (stereo not shown)	1.08%
Cc1cccc(OCC(=O)Nc2ccccc2C(F)(F)F)c1	-12.2%
O=C(CNS(=O)(=O)c1ccc(C(=O)N2CCOCC2)cc1)N1CCOCC1	3.87%
Cc1nnc(N2CCC(C(N)=O)CC2)c2c1nnn2Cc1ccccc1Cl	6.34%
CC12CCC(C(=O)O)(c3nc4ccc5ncccc5c4nc31)C2(C)C (stereo not shown)	-2.91%
CCCOC(=O)C1C2c3ccccc3C(c3ccccc32)C1C(=O)O (stereo not shown)	-0.415%

Structure (SMILES)	% Inhibition @ 10 uM
Cc1ccc(NC(=O)c2cccc(F)c2)c(NC(=O)c2cccc(F)c2)c1	0.331%
CC(C)C(NS(=O)(=O)c1cccs1)C(=O)NCc1ccc2c(c1)OCO2 (stereo not shown)	-1.96%
COc1ccc(N2C(=O)C3CCC(C)CC3C2=O)cc1 (stereo not shown)	2.51%
Cc1ccnc(NS(=O)(=O)c2ccc(NC(=O)c3ccccc3Cl)cc2)n1	-5.85%
CC1=C(C(=O)Nc2ccc(F)cc2F)C(c2ccccc2C)C2=C(O)CCCC2=N1 (stereo not shown)	-5.01%
COc1ccc(NC(=O)CN(c2ccc(F)cc2)S(=O)(=O)c2ccccc2)cc1OC	-4.01%
COc1ccc(C(=O)n2nc(C)cc2C)cc1Br	-4.93%
Cc1ccc(C)c(OCC(=O)Nc2nc(-c3ccccc3)cs2)c1C	5.23%
CCc1[nH]nc2c1C(c1ccc(OC(C)C)cc1)C(C#N)=C(N)O2 (stereo not shown)	-2.16%
C=CCc1cc(/C=C2/SC(=O)N(C(C)C)C2=O)cc(OC)c1O	1.86%
CC(=O)c1c(C)nn2c3ccccc3n(C)c12	-5.21%
O=C(NC1(C(F)(F)F)NC(=O)N(c2ccc(OC(F)(F)F)cc2)C1=O)c1ccncc1 (stereo not shown)	-3.72%
CCC1CCCCN1C(=O)C1CCN(C(=O)c2c(C)nn(-c3ccccc3)c2-n2cccc2)CC1 (stereo not shown)	-7.1%
Cc1cccc(C(=O)NCCN2CCCC2)c1	-0.519%
CC1=C(C(=O)Nc2ccc(Cl)cn2)C2(CCCCCC2)OC1=O	-0.285%
CC(C)N(CC(O)COc1cccc2ccccc12)C(=O)c1cccc2ccccc12 (stereo not shown)	1.8%
CN1CCC(N2CCCCCCC2)CC1	-7.93%
CCCc1nnc(NC(=O)C(CC)Sc2nnc3c(n2)[nH]c2ccccc23)s1 (stereo not shown)	-5.51%
CC(=O)NS(=O)(=O)c1ccc(NC(=O)c2cccc(Cl)c2)cc1	-2.29%
COC(=O)C1=CN(C23CC4CC(CC(C4)C2)C3)C=C(C(=O)OC)C1c1ccc(Cl)s1	0.147%
COc1cc(C2=NOC(C(=O)N3CCOCC3)C2)cc(OC)c1OC (stereo not shown)	-0.431%
CCCNC(=O)C1=C(C)C(=O)OC12CCN(C(C)=O)CC2	1.08%

Source: paper PMC6919601, “Identification of Plasmodium dipeptidyl aminopeptidase allosteric inhibitors by high throughput screening” (PLoS ONE, 2019)
